Measured values from PubChem BioAssay AID2546 (National Center for Advancing Translational Sciences (NCATS), 2010).
Out of some 310,000 compounds screened, about 11,000 (3.5%) were called active. This list was built around the results that the source calls inconclusive (neither active nor inactive); the mix of calls is not that of the screen. The call rests on the fitted dose curve; in most records, active means well fitted inhibition curve with a large enough effect; inconclusive means small, poorly fitted or top-dose-only effect, or effect the other way; inactive means flat fitted curve, though single readings scatter. No potency is given beside an inconclusive call; the fits are too rough.

Assay: VP16 counterscreen qHTS for inhibitors of ROR gamma transcriptional activity;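 further: Gal4-VP16 expression switched on by copper sulfate through the metallothionein promoter; nearly all actives have a fitted effect of over 50% in size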
Details: Drosophila S2 Gal4-VP16 UAS-luciferase, luminescence, 20 h; activity, negative = inhibition: at 53.6 µM (top of the series)
On the % scale 0 is the no-effect control and ±100 the full control effect; potency means the concentration at half of the fitted maximal effect; tags describe the fitted curve by direction and shape.

| SMILES | Potency | activity, negative = inhibition |
| --- | --- | --- |
| O=C(Nc1nc2cc3c(cc2s1)OCCO3)c1ccco1 | active: 6.31 µM |  |
| COc1ccc(-n2nnnc2S(=O)(=O)CC(=O)N2CCCCC2)cc1 | active: 4.47 µM |  |
| Cc1ccc(S(=O)(=O)C(C)C(=O)c2ccc3c(c2)OCCO3)cc1 (configuration not stated) |  | inactive: -2.53% |
| CC(=O)c1c(C)[nH]c(C(=O)Nc2cccc(S(=O)(=O)N3CCOCC3)c2)c1C |  | inactive: -6.79% |
| CCOC(=O)c1ccccc1NC(=O)CSc1nccn1C |  | inactive: -7.48% |
| COc1ccc(C)cc1S(=O)(=O)N1CCCC(C(=O)NCc2ccccn2)C1 (configuration not stated) |  | inactive: 0.653% |
| NC(=O)c1ccsc1NC(=O)c1ccc2c(c1)CCCC2 | inconclusive [inhibitor, partial curve, poor fit] |  |
| O=C(CN(c1ccc(F)cc1)S(=O)(=O)c1ccccc1)NCc1ccco1 |  | inactive: 17% |
| Cc1nc2c(cc1C(=O)N/N=C/c1ccc(O)c(O)c1)c(=O)n(C)c(=O)n2C | inconclusive [inhibitor, single point] |  |
| Cn1c(=N)n(CC(=O)c2ccc(Cl)c(Cl)c2)c2ccccc21 | inconclusive [inhibitor, partial curve] |  |
| COc1ccc(N2CCN(c3ncnc4scc(-c5ccc(C)cc5)c34)CC2)cc1 |  | inactive: 5% |
| Cc1ccc(OCC(=O)c2cc(C)n(Cc3ccco3)c2C)c([N+](=O)[O-])n1 | inconclusive [inhibitor, single point] |  |
| CC(NC(=O)CCCCCNC(=O)N1CCn2c1nc1ccccc12)c1ccccc1 (configuration not stated) |  | inactive: 0.401% |
| CCC(C)[C@H](NC(=O)[C@@H]1Cc2ccccc2CN1)C(=O)Nc1ccc2c(c1)OCO2 (some centres not stated) |  | inactive: 7.81% |
| Cc1cccnc1NC(=S)Nc1ccc(Cl)c(Cl)c1 | inconclusive [inhibitor, single point] |  |
| CCCCCCCCCCOC(=O)Cn1c(COc2ccc(Cl)cc2)[n+](C)c2ccccc21 | inconclusive [inhibitor, single point] |  |
| COc1cccc(Cn2c(=O)c(-c3ccc(Cl)cc3)nc3cnc(N4CCNCC4)nc32)c1 | inconclusive [inhibitor, single point] |  |
| CCc1cc(-c2oncc2-c2ccc(OC)cc2)c(O)cc1OC | active: 14.1 µM |  |
| Cc1cccc(Nc2c([N+](=O)[O-])cc(C(=O)N3CC(=O)Nc4ccccc43)cc2[N+](=O)[O-])c1 | inconclusive [activator, single point] |  |
| C=CCN=C1NN=C(c2cc(C)n(CC=C)c2C)CS1 | inconclusive [inhibitor, partial curve] |  |
| CCN(CC(=O)Nc1cc(Cl)ccc1C)c1ncnc2sc(C)c(C)c12 | inconclusive [inhibitor, single point] |  |
| COc1ccc(CC(NC(C)=O)C(=O)NC2CCN(c3c4c(nc5ncnn35)CCC4)CC2)cc1 (configuration not stated) |  | inactive: -6.66% |
| C=C(C)CNC(=S)N/N=C/c1c(F)cccc1F | active: 6.31 µM |  |
| CCc1ccccc1N(CC)C(=O)CCc1nc(-c2ccc(C)cc2)no1 | inconclusive [inhibitor, single point] |  |
| COc1ccccc1C(=O)Nc1sc(C(=O)N2CCCC2)c(C)c1C#N | active: 7.94 µM |  |
| Nn1cnnc1N/N=C\c1ccc(-c2ccccc2[N+](=O)[O-])o1 | inconclusive [inhibitor, single point] |  |

| SMILES | Potency | activity, negative = inhibition |
| --- | --- | --- |
| NC(=S)NN=C1c2ccccc2-c2ccccc21 | active: 3.98 µM |  |
| Fc1cccc(Nc2ncnc3sc4c(c23)CCC4)c1 | inconclusive [activator, single point] |  |
| Cc1ccc(C(=O)COC(=O)c2cn3ccccc3n2)cc1 |  | inactive: -2.95% |
| O=C(COC(=O)c1ccc(S(=O)(=O)N2CCCC2)cc1)NCc1cccs1 |  | inactive: -0.106% [at 10 µM] |
| CCc1n[nH]c(=S)n1N=C1CCC(C)CC1 (configuration not stated) |  | inactive: -11.9% |
| CC1=C(Nc2ccc(C(=O)O)cc2)C(=O)c2ccccc2C1=O | inconclusive [inhibitor, single point] |  |
| O=C(N/N=C/c1c(O)ccc2ccccc12)c1cccc(C(F)(F)F)c1 | active: 5.01 µM |  |
| COCCNC(=S)N1CCN(c2nc(-c3cccc(OC)c3)cs2)CC1 |  | inactive: 13.8% |
| Cc1nc(CCNC(=O)c2cccs2)cs1 |  | inactive: 2.38% |
| Cc1ccc(N2C(=O)c3ccccc3C2Nc2ccc(S(=O)(=O)N3CCCCC3)cc2)nc1 (configuration not stated) |  | inactive: 1.1% |
| Cc1cccc(Nc2nc(-c3ccccc3)cs2)n1 | active: 17.8 µM |  |
| COCCNS(=O)(=O)c1ccc(-c2ccc(Cl)cc2)cc1 | inconclusive [inhibitor, single point] |  |
| O=S1(=O)CCOC[C@H](CC2CCCCC2)N1Cc1cccc(Cl)c1 |  | inactive: -0.782% |
| CNC(=S)Nc1ccc(-c2nc3ccc(C)cc3s2)cc1 | active: 7.08 µM |  |
| O=C(O)COc1ccccc1/C=C1\SC(=S)N(c2cccnc2)C1=O |  | inactive: -3.92% |
| COCCN(C(=O)CCC(=O)Nc1nccs1)C(C(=O)NCCC(C)C)c1ccc(F)cc1 (configuration not stated) | active: 3.55 µM |  |
| O=C(NCC1CCCO1)Nc1ccccc1 (configuration not stated) |  | inactive: 4.15% |
| Cc1ccccc1OCC(=O)Nc1ccc(Cc2ccncc2)cc1 | active: 10 µM |  |
| O=C(Cc1ccc(NS(=O)(=O)c2ccc(F)cc2)cc1)NCc1ccccc1 |  | inactive: 10% |
| CCOc1ccc(C(=O)Nc2cc(C)ccn2)cc1 | active: 10 µM |  |
| COC1=C(C)C(O)=C(C(=O)/C=C/c2ccccc2)C(=O)C1(C)C | inconclusive [inhibitor, single point] |  |
| CCCCCc1cc(=O)oc2c(C(CCN(CC)CC)c3cc(OC)c(OC)c(OC)c3)c(OC)cc(OC)c12 (configuration not stated) | inconclusive [inhibitor, single point] |  |
| COc1ccccc1-n1c(SCC(=O)Nc2ccccc2C)nc(O)cc1=O |  | inactive: -0.688% |
| CC(C)NC(=O)c1noc2cc([N+](=O)[O-])ccc12 |  | inactive: -28.3% |
| CCOCCCNC(=S)Nc1ccc2nc(N3CCOCC3)cc(C)c2c1 | inconclusive [inhibitor, single point] |  |
| Cc1ccc(C)c(NC(=O)C(Sc2nc3ccc(C)cc3[nH]2)c2ccccc2)c1 (configuration not stated) | inconclusive [inhibitor, single point] |  |
